{
  "sequences": {"note": "Sequences of proteins named here, by UniProt entry; tags and fusion partners are left off.", "UniProt O35179": "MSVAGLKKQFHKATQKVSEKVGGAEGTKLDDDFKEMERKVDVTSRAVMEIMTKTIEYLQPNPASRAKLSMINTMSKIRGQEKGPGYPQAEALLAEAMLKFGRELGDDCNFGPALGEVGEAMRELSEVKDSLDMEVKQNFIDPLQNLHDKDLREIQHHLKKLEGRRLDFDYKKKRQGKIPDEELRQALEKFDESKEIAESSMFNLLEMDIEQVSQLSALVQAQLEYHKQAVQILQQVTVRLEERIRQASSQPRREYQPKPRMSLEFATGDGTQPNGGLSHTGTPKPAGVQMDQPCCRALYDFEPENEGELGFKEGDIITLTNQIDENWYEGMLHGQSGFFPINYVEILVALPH"},
  "source": "paper doi:10.1101/2023.09.21.558797",
  "test_in_all_cases": "pull-down; GST-Dyn1 PRR constructs on GSH-sepharose beads incubated with rat brain synaptosomal (P2) lysate; 20 mM Tris pH 7.4, 150 mM NaCl, 1% Triton X-100, 1 mM EDTA, 1 mM EGTA; 4 °C, 1 h; bound proteins by Western blot with antibodies to Endophilin A and Amphiphysin 1; only the target purified",
  "key": {"GST-Dyn1xA 746-798 (rat)": {"target": "T1, GST-Dyn1xA 746-798 (rat) (UniProt P21575)", "T1 sequence": "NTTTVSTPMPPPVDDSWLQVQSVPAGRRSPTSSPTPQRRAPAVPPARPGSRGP"}, "GST-Dyn1xA 794-864 (rat)": {"target": "T2, GST-Dyn1xA 794-864 (rat) (UniProt P21575)", "T2 sequence": "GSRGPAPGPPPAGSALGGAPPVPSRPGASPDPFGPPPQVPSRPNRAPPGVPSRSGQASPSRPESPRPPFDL"}, "GST-Dyn1xA 806-864 (rat)": {"target": "T3, GST-Dyn1xA 806-864 (rat) (UniProt P21575)", "T3 sequence": "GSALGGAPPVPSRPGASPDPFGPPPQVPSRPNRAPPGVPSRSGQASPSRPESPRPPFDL"}, "[1]": {"target": "T4, GST-Dyn1xA 806-864 P813/816A (rat) (UniProt P21575)", "T4 sequence": "T3 sequence with P8A, P11A"}, "[2]": {"target": "T5, GST-Dyn1xA 806-864 P816/819A (rat) (UniProt P21575)", "T5 sequence": "T3 sequence with P11A, P14A"}, "[3]": {"target": "T6, GST-Dyn1xA 806-864 P833/836A (rat) (UniProt P21575)", "T6 sequence": "T3 sequence with P28A, P31A"}, "[4]": {"target": "T7, GST-Dyn1xA 806-864 P841/844A (rat) (UniProt P21575)", "T7 sequence": "T3 sequence with P36A, P39A"}, "[5]": {"target": "T8, GST-Dyn1xA 806-864 R838A (rat) (UniProt P21575)", "T8 sequence": "T3 sequence with R33A"}, "[6]": {"target": "GST-Dyn1xA-PRR (full-length proline-rich region of Dynamin 1 splice variant xA, 746-864) (rat) (UniProt P21575)"}, "[7]": {"target": "T9, GST-Dyn1xA-PRR P813/816A (rat) (UniProt P21575)", "T9 sequence": "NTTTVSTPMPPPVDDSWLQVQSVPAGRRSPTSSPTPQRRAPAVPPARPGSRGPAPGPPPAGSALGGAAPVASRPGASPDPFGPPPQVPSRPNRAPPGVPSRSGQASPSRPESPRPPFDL"}, "[8]": {"target": "T10, GST-Dyn1xA-PRR P816/819A (rat) (UniProt P21575)", "T10 sequence": "T9 sequence with A68P, P74A"}, "[9]": {"target": "T11, GST-Dyn1xA-PRR P841/844A (rat) (UniProt P21575)", "T11 sequence": "T9 sequence with A68P, A71P, P96A, P99A"}, "[10]": {"target": "T12, GST-Dyn1xA-PRR P844A (rat) (UniProt P21575)", "T12 sequence": "T9 sequence with A68P, A71P, P99A"}, "[11]": {"target": "T13, GST-Dyn1xA-PRR R838A (rat) (UniProt P21575)", "T13 sequence": "T9 sequence with A68P, A71P, R93A"}, "[12]": {"target": "T14, GST-Dyn1xA-PRR R846A (rat) (UniProt P21575)", "T14 sequence": "T9 sequence with A68P, A71P, R101A"}, "[13]": {"target": "T15, GST-Dyn1xA-PRR S774/778E (rat) (UniProt P21575)", "T15 sequence": "T9 sequence with S29E, S33E, A68P, A71P"}, "[14]": {"target": "T16, GST-Dyn1xA-PRR S851/857E (rat) (UniProt P21575)", "T16 sequence": "T9 sequence with A68P, A71P, S106E, S112E"}},
  "note": "Residue numbers refer to the chain shown, from its start. Results are given in words; binding and its absence hold for the method and conditions named. In cells and extracts the contact can be indirect. Some binding calls cover weakened binding; strength is not graded here. For some assays here: Where a sequence is shown, tags or fusion partners need not be part of it.",
  "data": [
    {"substance": "Endophilin A1 (endogenous, rat brain synaptosomes) (from UniProt O35179 1-352)", "values": [
      {"measurement": "binding", "setting": "GST-Dyn1xA 746-798 (rat)", "value": "binds"},
      {"measurement": "binding", "setting": "GST-Dyn1xA 794-864 (rat)", "value": "binds"},
      {"measurement": "binding", "setting": "GST-Dyn1xA 806-864 (rat)", "value": "binds"},
      {"measurement": "binding", "setting": "[1]", "value": "binds"},
      {"measurement": "binding", "setting": "[2]", "value": "binds"},
      {"measurement": "binding", "setting": "[3]", "value": "no binding"},
      {"measurement": "binding", "setting": "[4]", "value": "binds"},
      {"measurement": "binding", "setting": "[5]", "value": "binds weakly"},
      {"measurement": "binding", "setting": "[6]", "value": "binds"},
      {"measurement": "binding", "setting": "[7]", "value": "binds"},
      {"measurement": "binding", "setting": "[8]", "value": "binds"},
      {"measurement": "binding", "setting": "[9]", "value": "binds"},
      {"measurement": "binding", "setting": "[10]", "value": "binds"},
      {"measurement": "binding", "setting": "[11]", "value": "binds"},
      {"measurement": "binding", "setting": "[12]", "value": "binds"},
      {"measurement": "binding", "setting": "[13]", "value": "binds"},
      {"measurement": "binding", "setting": "[14]", "value": "binds"}
    ]}
  ]
}
